The whole screen tested about 310,000 compounds, of which about 14,000 (4.5%) showed an effect of 50% or more. Effects have a minus sign here. Some of the results follow.
biological target: human ether-à-go-go-related gene (hERG) potassium channel (human, UniProt Q12809); assay: primary screen, population patch clamp on CHO cells stably expressing hERG
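Note: peak tail current of the secondary pulse compared with the same well before compound.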

human ether-à-go-go-related gene (hERG) potassium channel, sequence (Q12809 whole entry, looked up): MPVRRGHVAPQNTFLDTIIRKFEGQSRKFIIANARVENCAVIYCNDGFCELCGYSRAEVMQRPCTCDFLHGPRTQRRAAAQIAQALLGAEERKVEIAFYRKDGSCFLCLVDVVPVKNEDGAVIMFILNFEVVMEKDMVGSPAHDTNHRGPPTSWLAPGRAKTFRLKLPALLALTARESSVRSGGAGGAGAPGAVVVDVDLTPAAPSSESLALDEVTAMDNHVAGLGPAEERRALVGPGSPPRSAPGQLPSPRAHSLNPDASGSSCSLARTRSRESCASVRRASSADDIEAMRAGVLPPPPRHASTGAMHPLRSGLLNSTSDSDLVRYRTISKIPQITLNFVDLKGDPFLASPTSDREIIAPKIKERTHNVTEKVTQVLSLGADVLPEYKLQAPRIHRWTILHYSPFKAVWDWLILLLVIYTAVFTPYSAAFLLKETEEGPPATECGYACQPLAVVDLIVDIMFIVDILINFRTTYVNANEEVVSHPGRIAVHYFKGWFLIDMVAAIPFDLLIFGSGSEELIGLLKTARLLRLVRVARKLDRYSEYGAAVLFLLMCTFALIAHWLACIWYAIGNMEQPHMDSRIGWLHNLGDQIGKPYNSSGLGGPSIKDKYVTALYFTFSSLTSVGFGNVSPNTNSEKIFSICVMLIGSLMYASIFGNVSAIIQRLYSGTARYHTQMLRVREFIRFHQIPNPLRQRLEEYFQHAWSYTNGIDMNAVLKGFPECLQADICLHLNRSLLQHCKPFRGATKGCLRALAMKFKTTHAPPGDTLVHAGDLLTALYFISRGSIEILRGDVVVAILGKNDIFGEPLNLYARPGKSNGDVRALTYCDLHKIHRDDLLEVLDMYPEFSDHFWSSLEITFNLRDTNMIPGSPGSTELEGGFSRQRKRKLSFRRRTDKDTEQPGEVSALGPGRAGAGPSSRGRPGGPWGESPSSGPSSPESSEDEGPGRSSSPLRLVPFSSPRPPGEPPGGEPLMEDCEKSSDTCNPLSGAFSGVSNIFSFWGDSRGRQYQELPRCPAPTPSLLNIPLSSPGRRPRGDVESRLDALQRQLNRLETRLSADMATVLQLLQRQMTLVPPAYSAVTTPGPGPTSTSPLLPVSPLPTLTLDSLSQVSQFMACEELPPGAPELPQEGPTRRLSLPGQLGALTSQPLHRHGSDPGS

Row | Compound | hERG current change (%, negative = inhibition) at 10uM [%]
1 | Cc1cc(NC(=O)CSc2ccc(Cl)cc2)no1 | -3.36
2 | O=C(Nc1nnc(SCC(=O)N2CCOCC2)s1)c1ccccc1Cl | 3.26
3 | CC[C@H](C)[C@@H]1NC(=O)c2cc([N+](=O)[O-])cc(F)c2NCCCC[C@@H](C(N)=O)NC(=O)[C@H](CC(N)=O)NC1=O | 8.58
4 | O=C(Cn1nnc(-c2ccccc2NC(=O)c2ccccc2F)n1)NCc1ccco1 | 10.1
5 | NC(=O)c1cc(S(=O)(=O)N2CCN(c3ccc([N+](=O)[O-])cc3)CC2)cs1 | -74.4
6 | CCCN1C(=O)N(C)C(N(O)C(=O)NC)C1(C)C (centres unmarked) | 18
7 | CSc1ncccc1C(=O)N1CCN(C(=O)c2ccccc2)CC1 | 19.9
8 | CCOCCCn1c(=N)c(C(N)=S)cc2c(=O)n3cccc(C)c3nc21 | -82.6
9 | CCOc1ccc(C(=O)CCN2CCCCC2)cc1 | -19.7
10 | CCOc1cc(-c2noc(-c3cccnc3)n2)ccc1OC | -3.28
11 | CC(C)n1cc(CN2CCC(C(=O)Nc3cccc(-c4cscn4)c3)CC2)cn1 | -32.8
12 | C=CC1CN(C(=O)OCC(Cl)(Cl)Cl)C2CC3c4ccc(OC)cc4NC3C3CC1C2CO3 (centres unmarked) | -7.61
13 | Cc1ccc(Nc2nc(N)c([N+](=O)[O-])c(NCCO)n2)cc1C | 3.96
14 | COc1ccc(/C(O)=C2\C(=O)C(=O)N(c3cc(C)on3)C2c2ccccc2OC)cc1C (centres unmarked) | -8.59
15 | Cc1cccn2cc(CNC(=O)C3CCCCC3)nc12 | -12.6
16 | O=C(CCSc1nnc(-c2ccncc2)o1)Nc1cccc(Cl)c1 | -9.38
17 | CN(C)CCOc1ccc(Cl)cc1C(C)(C)C.O=C(O)C(=O)O | -3.37
18 | O=C(NCc1ccco1)c1ccc(CS(=O)Cc2ccc(Cl)cc2)o1 (centres unmarked) | -30.5
19 | O=C(c1ccccn1)C1CCCN(Cc2cn[nH]c2-c2cc3ccccc3o2)C1 (centres unmarked) | -70
20 | COc1ccc(CCNc2ccc(C(CC(N)=O)NC(=O)c3ccccc3)cc2[N+](=O)[O-])cc1 (centres unmarked) | 7.15
21 | CC(NC(=O)/C=C/c1ccco1)c1nc2ccccc2n1Cc1cccc(Cl)c1 (centres unmarked) | -67.2
22 | O=C(N=Nc1c(O)[nH]c(=O)[nH]c1=O)C1COc2ccccc2O1 (centres unmarked) | -1.75

Row | Compound | hERG current change (%, negative = inhibition) at 10uM [%]
23 | CCOP(=O)(OCC)C(O)c1ccc(OC)cc1OC (centres unmarked) | 14.7
24 | Cc1sc2nc(SCC(=O)NCCOCCO)n(C)c(=O)c2c1C | 3.26
25 | COc1ccccc1N1C(=O)NC(=O)C2(Cc3cc(C)ccc3N(C)C2)C1=O (centres unmarked) | -19
26 | COc1ccc(/C=C/C(=O)NCc2cn(C)nc2C)cc1COc1ccc(Cl)cc1Br | 14
27 | CC(=O)N(CC1CCCO1)c1nnc(-c2ccccn2)s1 (centres unmarked) | -5.02
28 | O=C(NC(=O)c1ccccc1Cl)C(=O)Nc1ccc(Cl)cc1 | 9.59
29 | CCCn1nc(C(=O)OCC(=O)Nc2cccc(S(N)(=O)=O)c2)c2ccccc2c1=O | 10.3
30 | O=C(Nc1nnc(Cc2ccccc2)s1)c1cccs1 | -9.52
31 | CCC(C)[C@H]1CNC(=S)N1CCc1cccc2ccccc12 (some centres unmarked) | 25.2
32 | COC(CN1C(=O)C(O)=C(C(C)=O)C1c1ccccn1)OC (centres unmarked) | 2.12
33 | O=C(NCc1ccccn1)NC1CCCCC1 | 7.23
34 | CCCCCC(=O)Nc1ccc(S(=O)(=O)Nc2cc(OC)nc(OC)n2)cc1 | 14.8
35 | COC(=O)/C(=N/Nc1ccccc1C)N1CCCc2ccccc21 | 0.724
36 | CCN1CC2([N+](=O)[O-])CC=C(Cl)C([N+](=O)[O-])(C1)C2 (centres unmarked) | 13.9
37 | O=C(O)CCC(=O)NNC(=O)COc1ccc2ccccc2c1Br | 11.4
38 | CC(C)NC(=O)CC1Nc2c3ccccc3nc(=S)n2C1=O (centres unmarked) | -0.232
39 | CC1COc2ccccc2N1S(=O)(=O)c1ccccc1 (centres unmarked) | 8.86
40 | COc1cc(OC)cc(C(=O)N[C@H](C(=O)OCC(=O)c2ccc3c(c2)NC(=O)CO3)C(C)C)c1 | -6.82
41 | CCS(=O)(=O)N(CC(=O)Nc1cccc2ccccc12)c1ccc(OC)cc1 | -3.1
42 | Cc1ccc(NC(=O)C(C)N2CCN(C)CC2)cc1S(=O)(=O)N1CCOCC1 (centres unmarked) | 2.14
43 | Cc1cc2c(c(=O)o1)C1(C(=O)N(CC(=O)O)c3ccccc31)C(C#N)=C(N)O2 (centres unmarked) | 11.4
44 | COc1ccccc1C(=O)NCCC(=O)Nc1ccc(S(=O)(=O)N2C(C)CCCC2C)cc1 (centres unmarked) | -6.83

— article PMC4336329 (PLoS ONE, 2015)
